# According to PubChem BioAssay AID434955 (Southern Research Specialized Biocontainment Screening …, 2010):
# This is one part of the list. The main result of the screen is listed elsewhere. These columns were measured beside it and carry no call. Most of these compounds were active or inconclusive in the main read-out, so they are no random draw.
# Assay: beta-lactam sensitization of Mtb H37Rv, H37Rv (AID 434955);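 also: growth measured after seven days incubation then overnight dye step; 0% = bacteria only wells and 100% = bacteria with antibiotic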
# Conditions: M. tuberculosis H37Rv growth with meropenem, percent inhibition; measured here: primary screen without meropenem; at 25 µM
row,SMILES,inhibition [%]
1,COC(=O)c1ccccc1NC(=O)Cn1c(-c2nonc2N)nc2ccccc21,-9.37
2,c1ccc(-c2n[nH]c3c2CCC3)cc1,49.1
3,Cc1cccc(C)c1OCC(=O)NNC(=O)CNC(=O)c1ccc(OC(F)F)cc1,65.1
4,C=CCNc1nc2ccccc2nc1NS(=O)(=O)c1ccc(F)cc1,-0.58
5,COc1cccc(C2C(C(=O)c3ccc(C)o3)=C(O)C(=O)N2CCN2CCOCC2)c1OC (stereo not given),0.43
6,COc1cc(NC(=O)CN(C)S(=O)(=O)c2cccs2)cc(OC)c1,0.41
7,Cc1ccccc1N1CCN(CCN2C(=O)CC(=C3c4ccccc4-c4ccccc43)C2=O)CC1,-2.78
8,COC(=O)c1ccc(-c2nc(CN3CCC(C(=O)N4CCOCC4)CC3)c(C)o2)cc1,-1
9,O=C(NCC1CCCO1)C(=O)N/N=C/c1cccc(Cl)c1 (stereo not given),-5.69
10,O=C(CSc1ncn[nH]1)Nc1cccc2ccccc12,16.9
11,COc1ccc(Nc2ncnc3sc(C)cc23)cc1,6.34
12,CCOC(=O)N1CCC(Nc2c(NCCCN3CCN(CC)CC3)c(=O)c2=O)CC1,-2.47
13,COC(=O)Cn1cnc2c(oc3ccccc32)c1=O,4.41
14,COc1cccc(S(=O)(=O)N2CCN(Cc3ccc4c(c3)OCO4)CC2)c1,-2.07
15,Cc1cccc(OCc2nc(-c3ccccn3)n[nH]2)c1,15.2
16,COc1ccc(-c2sc3cc4c(cc3c2C#CC2(O)CCCCC2)OCO4)cc1,91.9
17,CC(C)N1CC23C=CC(O2)C(C(=O)OCc2ccccc2)C3C1=O (stereo not given),0.67
18,Cc1cc(NC(=O)C(C)SCC(=O)OCc2c(Cl)cccc2Cl)no1 (stereo not given),2.46
19,Cc1ccc(NC(=O)CN2C(=O)S/C(=C/c3ccncc3)C2=O)cc1,-5.55
20,CCOC(=O)CNC(=O)c1cccnc1Oc1ccc(Cl)cc1,42.7
21,COc1ccc(C(=O)NCC(=O)OCCCOC(=O)CNC(=O)c2ccc(OC)c(OC)c2)cc1OC,4.89
22,CCCNc1c(NC(=O)c2cccs2)c(=O)oc2ccccc12,-1.08
23,O=C(CCc1ccccc1)NC(=S)Nc1ccccc1[N+](=O)[O-],4.39
24,CN1C(=O)C(Cc2cnc[nH]2)NC1=S (stereo not given),-2.02
25,Cc1ccc(Cn2ccc(NC(=O)c3cc(-c4ccco4)on3)n2)cc1,-2.45
26,Cc1cc(C)cc(NC(=S)NN)c1,11.2
27,COc1cccc(-c2ccc(NC(=O)C3CCCN(Cc4cnc(C)s4)C3)cc2)c1 (stereo not given),66.4

row,SMILES,inhibition [%]
1,Cc1onc(-c2ccccc2)c1C(=O)NNC(=S)NC(=O)/C=C/c1ccccc1,-7.55
2,COCC(=O)N1CCC(Oc2ccc(C(=O)N(C)C(C)c3ccon3)cc2)CC1 (stereo not given),0.05
3,O=c1c2ccccc2nc(-c2ccco2)n1CCc1ccc(O)cc1,5.86
4,COc1ccc(-c2ncccc2OC(=O)C23CC4CC(CC(C4)C2)C3)cc1,23
5,Cc1nc(NC(=O)c2cc3ccccc3o2)ccc1Br,-1.41
6,CCOC(=O)C1CCN(Cc2oc(CO)cc(=O)c2O)CC1,6.71
7,CC(C)C[C@H](NC(=O)OC(C)(C)C)C(=O)N1CCC(C(=O)N[C@@H](Cc2c[nH]c3ccccc23)C(=O)O)CC1,-5.71
8,CCn1c(=O)cc(OCC(=O)N(C)C2CCCCC2)c2ccccc21,-2.51
9,Cc1cccc(NC(=O)c2cc3ccccc3c(=O)o2)n1,5.76
10,CCc1nnc(NC(=O)c2ccc3nc(CC)c(CC)nc3c2)s1,10.6
11,Cc1cc(C(=O)N2CCCC(CO)(Cc3ccc(F)cc3)C2)c(C)o1 (stereo not given),1.96
12,Cc1nc(-c2ccccc2)sc1C(=O)Nc1ccc(S(N)(=O)=O)cc1,2.75
13,Cc1[nH]n(-c2ccccc2)c(=O)c1/C=N/NC(=O)c1ccoc1C,7.49
14,CCN(C(=O)C1CCCN1S(=O)(=O)c1ccc2c(c1)n(C)c(=O)c(=O)n2C)c1ccccc1 (stereo not given),-4.69
15,O=C(COC(=O)c1cccc(NC(=O)c2ccco2)c1)c1ccc(Br)cc1,-6.74
16,COc1c(F)c(F)c(C(=O)Nc2c(C)cc(Br)cc2C)c(F)c1F,31.3
17,C=CCn1cc(C(=O)NCCCOC)c(=O)c2cc(S(=O)(=O)N(CC)CC)ccc21,-3.83
18,CCOc1ccc(/C=C2\C(=O)c3ccccc3OC2c2ccccc2)cc1 (stereo not given),6.67
19,C=CCn1c(SCc2cccc(F)c2)nc2cc(C(=O)N3CCC(C(N)=O)CC3)ccc2c1=O,7.03
20,CN(C)S(=O)(=O)c1ccc(C(=O)Nc2cccc(C(=O)N3CCOCC3)c2)cc1,-14.1
21,CC(C)c1nc(CNC(=O)C2CCC(=O)N(CCc3ccc(Cl)cc3)C2)no1 (stereo not given),-9.06
22,COc1ccccc1OCC(=O)NCC1CCCN(Cc2cnn(C)c2C)C1 (stereo not given),-2.13
23,COC1CCN(C(=O)C2CCC(=O)N(CCc3cccc(F)c3)C2)CC1 (stereo not given),-6.29
24,COC(=O)c1ccc(NC(=O)CCN2C(=O)C3C4CCC(C4)C3C2=O)cc1 (stereo not given),-1.98
25,COc1ccc(-c2cc(C(N)=O)nc(N3CCCCCC3)n2)cc1,42
26,CN(c1ccc(OCC(=O)OCC(=O)c2c(N)n(C)c(=O)n(C)c2=O)cc1)S(=O)(=O)c1ccc2ccccc2c1,2.94
27,CCOC(=O)N1CCN(C(=O)CCN2C(=O)/C(=C\c3ccccc3OC)SC2=S)CC1,-5.52

row,SMILES,inhibition [%]
1,CN=C(SCc1ccccc1)c1c(O)n(C)c(=O)n(C)c1=O,-1.21
2,O=C(Nc1ccc(C(=O)N2CCOCC2)cc1)c1cccc(Br)c1,-2.43
3,CC(=O)OCC(=O)[C@@]1(O)CC[C@H]2[C@@H]3CCC4=CC(=O)C=C[C@]4(C)[C@H]3C(=O)C[C@@]21C,2.07
4,O=C(NCc1ccco1)C12CC3CC(C1)CC(C(=O)NCc1ccco1)(C3)C2,-12.8
5,COC(=O)C1CCN(S(=O)(=O)c2ccc(NC(C)=O)cc2)CC1,4.26
6,COc1ccc(CCN2CC(C(=O)N3CCC(OC)CC3)CCC2=O)cc1 (stereo not given),-1.93
7,C=CCOn1c(=O)c(-c2ccc(Br)cc2)[n+]([O-])c2ccccc21,5.53
8,O=C(O)C1CC(=O)N(c2ccc(OCc3ccccc3Cl)cc2)C1 (stereo not given),35.8
9,O=C(Nc1ccncc1)c1cn(-c2ccccc2)nc1-c1cccs1,-0.41
10,Cc1ccc(S(=O)(=O)Oc2ccc(/C=N/NC(=O)c3ccncc3)cc2)cc1,95.1
11,Cc1n[nH]c(C)c1CCN(C)C(=O)C1CCC(=O)N(CC2CCCCC2)C1 (stereo not given),4.1
12,COc1ccc(NC(=O)CSc2nc3sc(C)c(C)c3c(=O)n2Cc2ccco2)cc1,1.68
13,Cc1cc(NC(=O)/C=C/c2ccccc2Cl)n(-c2nc3ccccc3[nH]2)n1,39.2
14,Cc1ccc(-c2nn3c(C)nnc3s2)cc1NC(=O)c1ccc(Br)o1,0.16
15,COc1cccc(/C=C2\SC(=O)N(CC(=O)NC3C=CS(=O)(=O)C3)C2=O)c1 (stereo not given),2.52
16,O=C(CCC1CCN(C(=O)c2ccccc2Cl)CC1)NCc1ccc(F)cc1,4.2
17,Cc1ccc(N(Cc2cc(=O)[nH]c3ccccc23)C(=O)CCl)cc1,80.7
18,O=C(O)CSc1c2c(nc3cc(C(=O)Nc4cccc(C(F)(F)F)c4)ccc13)CCC2,1.06
19,CC1=C(C(=O)OC(C)C)C(c2cccs2)N2C(=O)CCSC2=N1 (stereo not given),-10.4
20,COc1cccc(OC)c1C(=O)Nc1ccc(C(=O)NCc2ccccc2)cc1,1.01
21,CC(NC(=O)CSc1nc2ccccc2c(=O)[nH]1)c1ccccc1 (stereo not given),30.5
22,O=C1CC(=O)Nc2cc(S(=O)(=O)N3CCOc4ccc(Cl)cc43)ccc2N1,-5.19
23,O=C(NCc1ccccc1OC(F)(F)F)C1CCC(=O)N(Cc2cccc(F)c2)C1 (stereo not given),-2.01
24,COc1ccc(NC(=O)CCc2nnc3ccc(NCc4ccc5c(c4)OCO5)nn23)cc1,3.5
25,CCn1cc(C(=O)O)c(=O)c2cc(F)c(N3CCN(C(=S)NC(=O)c4ccc(Br)cc4)CC3)cc21,-1.52
26,COc1ccc(-c2ccc(=O)n(CC(=O)Nc3cccc(O)c3)n2)cc1OC,0.29
27,COc1ccc(N2CC(C(=O)Nc3ccc4c(c3)OCO4)CC2=O)cc1 (stereo not given),-0.62

row,SMILES,inhibition [%]
1,CCOc1ccc(NC(N)=O)cc1OCC,-10.1
2,CC1CC(C)(C)n2c(O)c(N=NC(N)=S)c3cccc1c32 (stereo not given),-0.27
3,O=C(CC1C(=O)NCCN1Cc1cccc(F)c1)NCCCN1CCCC1=O (stereo not given),-1.68
4,CC(C)c1ccc(C(C)NCCS(=O)(=O)c2ccc(Cl)cc2)cc1 (stereo not given),72.6
5,CCn1cc(C(=O)NCCCN2CCC(C)CC2)c(=O)c2cc(S(=O)(=O)N3CCCC3)ccc21,-8.31
6,C/C(=N\NC(=O)c1cc2c(s1)CCC(C)C2)c1ccc[nH]1 (stereo not given),60.8
7,C=CCn1c(SCc2ccc(C(=O)Nc3nccs3)cc2)nnc1-c1ccc(C)c(Cl)c1,26.3
8,O=C(c1cc(-c2ccco2)on1)N1CCOCC1,1.61
9,COc1cccc(C(=O)COC(=O)CCCC(=O)NC2CCCCC2)c1,-12.1
10,CCC(=O)Nc1cccc(NC(=O)CSc2nnnn2C)c1,4.82
11,Cc1cccc2c1cnn2C(=O)CCC(=O)NCc1ccc(F)cc1,-10.1
12,CN(C)CCCOC(=O)c1ccc(Cl)cc1Cl,-8.04
13,CCOc1ccccc1NC(=O)c1ccc2c(c1)C(=O)N(CC1CCCO1)C2=O (stereo not given),51.7
14,CCOC(=O)N1CCN(C(=O)CSc2nnc(-c3ccccc3OC)o2)CC1,41.9
15,CC(CN1CCC(n2nccc2NC(=O)C2CCCC2)CC1)c1ccccc1 (stereo not given),0.64
16,Cc1ccnc(NC(=O)c2ccc(Cl)s2)c1,11.2
17,O=C(O)C1C2C=CC(C2)C1C(=O)NCc1ccoc1 (stereo not given),-5.23
18,Cc1ccc(NC(=O)c2ccc(Cn3cc(Cl)cn3)o2)c(C)c1,0.24
19,COc1cc(NC(=O)c2ccc(CNc3c(N4CCCC4)c(=O)c3=O)cc2)cc(OC)c1OC,-5.79
20,Cc1ccc(OCc2nnc(SCC(=O)Nc3cc(C)on3)n2C)cc1,-3.47
21,CC1Cn2c(nnc2-c2ccccc2O)S1 (stereo not given),1.72
22,CC(C)c1csc(CN2CCC(CCC(=O)NCC3CCCO3)CC2)n1 (stereo not given),-8.39
23,CCn1cc(S(=O)(=O)c2cccc(C)c2)c(=O)c2cc(F)c(N3CCN(C)CC3)cc21,4.09
24,CCn1c2ccccc2c2cc(/C=N/NC(=O)c3ccccc3)ccc21,6.16
